In article PMC6919601, “Identification of Plasmodium dipeptidyl aminopeptidase allosteric inhibitors by high throughput screening” (PLoS ONE, 2019):
In all, about 110,000 compounds went through this assay and about 230 (0.21%) showed an effect of 50% or more. This is one part of the list.

biological target: DPAP1 (Plasmodium falciparum, UniProt Q8IIJ9); test: primary screen, percent inhibition; read by cleavage of a fluorogenic dipeptide substrate; higher = more effect of the substance; set-up: species or system P. falciparum D10 trophozoite lysates; single well
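Further: 30 min substrate incubation versus DMSO and 10 µM JCP410 controls.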

Sequence of DPAP1 (Q8IIJ9 whole entry, looked up): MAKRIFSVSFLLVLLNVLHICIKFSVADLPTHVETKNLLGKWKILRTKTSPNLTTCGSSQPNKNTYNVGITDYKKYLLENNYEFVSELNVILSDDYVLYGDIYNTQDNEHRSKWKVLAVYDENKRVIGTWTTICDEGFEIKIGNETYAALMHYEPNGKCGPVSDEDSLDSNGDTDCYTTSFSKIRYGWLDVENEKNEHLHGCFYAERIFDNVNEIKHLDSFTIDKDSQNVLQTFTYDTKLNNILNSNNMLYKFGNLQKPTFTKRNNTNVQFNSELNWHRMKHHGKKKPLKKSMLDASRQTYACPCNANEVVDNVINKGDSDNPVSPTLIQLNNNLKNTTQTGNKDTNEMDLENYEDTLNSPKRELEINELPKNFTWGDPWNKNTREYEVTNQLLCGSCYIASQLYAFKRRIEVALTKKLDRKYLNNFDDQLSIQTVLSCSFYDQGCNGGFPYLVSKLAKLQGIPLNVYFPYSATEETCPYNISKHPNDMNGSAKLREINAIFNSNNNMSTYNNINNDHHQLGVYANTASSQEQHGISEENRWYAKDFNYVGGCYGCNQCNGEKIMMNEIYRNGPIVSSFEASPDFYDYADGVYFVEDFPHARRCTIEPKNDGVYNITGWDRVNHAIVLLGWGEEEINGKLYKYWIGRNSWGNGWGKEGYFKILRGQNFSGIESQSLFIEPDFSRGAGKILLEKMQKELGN

| Structure (SMILES) | % Inhibition @ 10 uM [%] |
| --- | --- |
| CC(C)(C)NCc1cccn1-c1sc2c(c1C#N)CCCC2 | 3.01 |
| Cn1c(C(=O)N2CCCC(C(=O)N3CCN(C(=O)c4ccco4)CC3)C2)cc2sccc21 (stereo not drawn) | -0.883 |
| Nc1ccccc1C(=O)Nc1ccccc1Cl | -8.06 |
| CC1CCC(N2CCCC(C(N)=O)C2)CC1 (stereo not drawn) | -1.5 |
| CC(=O)N(CN1C(=O)c2cc(Cl)c(Cl)cc2C1=O)c1ccccc1 | -0.28 |
| CCC(C)Nc1nc2c(S(=O)(=O)c3cc(C)ccc3C)nnn2c2ccccc12 (stereo not drawn) | 7.82 |
| COc1cccc(C2CC(c3ccccc3C)n3ncnc3N2)c1 (stereo not drawn) | 1.73 |
| COc1c(S(=O)(=O)Nc2cccc(-c3cn4ccsc4n3)c2)ccc(Cl)c1Cl | 7.05 |
| Oc1ccccc1-c1nc(Nc2cccc(F)c2)c2ccccc2n1 | -1.48 |
| Cc1nc2ccc(S(=O)(=O)NC(CC(C)C)C(=O)N3CCC(Cc4ccccc4)CC3)cc2s1 (stereo not drawn) | -4.97 |
| Cn1c2c(c(=O)n(C)c1=O)C(c1ccc(F)cc1F)C(C#N)=C(N)O2 (stereo not drawn) | 1.4 |
| Cc1cc(-c2ccccc2)n2ncc(-c3ccc(Cl)cc3)c2n1 | 1.72 |
| CCN1C=C(C(=O)OC)C(c2cccc(C)c2)C(C(=O)OC)=C1 | 0.238 |
| Cc1ccc(CN(C(=O)C(C)Oc2ccccc2Cl)C2CCS(=O)(=O)C2)o1 (stereo not drawn) | 0.362 |
| Cc1ccc(CNC(=O)C2CSC(c3cccs3)=N2)cc1 (stereo not drawn) | -0.406 |
| Cc1ccccc1NC(=O)C1C(=O)N(CCO)C2(C)CC1c1ccccc1O2 (stereo not drawn) | 4.03 |
| O=C(CN1C(=O)c2cccc3cccc1c23)Nc1ccc(F)cc1 | 2.87 |
| CCOC(=O)c1c(C)c(-c2ccccc2)n(CC(=O)NC(C)CC)c1C (stereo not drawn) | 3.32 |
| CNS(=O)(=O)c1cn(CC(=O)Nc2cc(C)ccn2)cc1S(=O)(=O)NC | -3.99 |
| O=S(=O)(Nc1ccc(F)cc1)c1ccc(F)cc1 | 3.85 |
| O=C(Nc1ccccc1Oc1ccccc1)C(F)(F)F | -1.96 |
| COc1ccc(-c2onc(C)c2C)cc1S(=O)(=O)NCC1CCCO1 (stereo not drawn) | 10.1 |
| O=C(NCc1ccc2c(c1)OCO2)C(NS(=O)(=O)c1cccc2nsnc12)c1ccccc1 (stereo not drawn) | 5.21 |
| COCCCNC(=O)CN(Cc1ccccc1)S(=O)(=O)c1ccc(Cl)cc1 | -1.6 |
| CCC1CCCCN1CCCNC(=O)c1cn(CC)c(=O)c2cc(OC)c(OC)cc12 (stereo not drawn) | -2.49 |

| Structure (SMILES) | % Inhibition @ 10 uM [%] |
| --- | --- |
| O=S(=O)(NCCc1c[nH]c2ccccc12)c1ccc(-n2cnnn2)cc1 | -6.56 |
| O=C(C1CC(=O)N(C2CCCC2)C1)N1CCC(c2c[nH]c3ccccc23)(c2c[nH]c3ccccc23)CC1 (stereo not drawn) | -6.01 |
| Cc1ccc2nc(NCCO)c3nnnn3c2c1 | -9.49 |
| O=C(Cn1ccc2cc(S(=O)(=O)N3CCCC3)ccc21)NCCC1=CCCCC1 | -9.08 |
| CN1CCN(S(=O)(=O)c2cc(Cl)ccc2Cl)CC1 | 5.56 |
| COc1ccc(C2CC(C(F)(F)F)n3ncc(C(=O)O)c3N2)cc1 (stereo not drawn) | -0.67 |
| Cc1cccc(CCNC(=O)CN2CC(c3ccccc3)CC2=O)c1 (stereo not drawn) | -2.27 |
| CCc1cccc(-n2nnc(-c3nc(-c4ccc5c(c4)OCO5)no3)c2N)c1 | -5.65 |
| C=CCS(=O)(=O)c1ccc2ccccc2c1 | -2.45 |
| CN(C)c1ccc2c(c1)C(=O)c1ccccc1C2=O | 2.54 |
| C=CCN1C(=O)/C(=C2/Sc3ccccc3N2C)S/C1=N\c1c(C)n[nH]c1C | 12.7 |
| Cc1ccc(S(=O)(=O)n2nc(C)cc2N)cc1 | -7.33 |
| Cc1cc(Cl)ccc1OCC(=O)NC1CCCCCC1 | 2.05 |
| COc1cccc(C(=O)Cn2nnc3sc4c(c3c2=O)CCC(C)C4)c1 (stereo not drawn) | -2.71 |
| COc1ccc(OC)c(C(=O)c2oc3ccccc3c2NC(=O)CN2CCCC2)c1 | 0.983 |
| O=C(O)c1ccc(CSc2nnc(-c3ccco3)n2-c2ccccc2)cc1 | 1.13 |
| NCC12CC3CC(C1)CC(CC(=O)O)(C3)C2 | -4.35 |
| COc1ccc(CN2COc3cc(C)c(Cl)c(C)c3C2)cc1 | 2.24 |
| CCCc1nnc(N2C(=O)c3oc4ccc(F)cc4c(=O)c3C2c2ccccc2F)s1 (stereo not drawn) | 1.74 |
| COc1ccc(CC(=O)Nc2sc3c(c2C#N)CCCC3)cc1OC | -3.46 |
| CCC(C)NC(=O)c1oc2ccc(S(=O)(=O)N3CCCC(C)C3)cc2c1C (stereo not drawn) | 8.16 |
| CCOc1ccc(NC(=O)c2c(N)sc3c2CCC(C)C3)cc1 (stereo not drawn) | 6.43 |
| CCCc1nc2c3ccccc3nc(S)n2n1 | 6.07 |
| Cc1noc2ncnc(N3CCCC(C(=O)NCCc4ccc(Cl)cc4)C3)c12 (stereo not drawn) | 13.8 |
| CCn1c(SCC(=O)Nc2ccc(Cl)cc2)nc2c1c(=O)n(C)c(=O)n2C | -0.99 |

| Structure (SMILES) | % Inhibition @ 10 uM [%] |
| --- | --- |
| O=C(O)C1Cc2c([nH]c3ccccc23)C(c2ccccc2[N+](=O)[O-])N1 (stereo not drawn) | -2.72 |
| COc1ccc(S(=O)(=O)N2CCC(Cc3ccccc3)CC2)cc1 | 0.215 |
| CC1=C(C(=O)N2CCN(Cc3ccccc3)CC2)C2(CCCCC2)OC1=O | 1.55 |
| CC(C)(C)C1CCc2c(sc(NC(=O)c3cccs3)c2C(N)=O)C1 (stereo not drawn) | -3.77 |
| Cc1nnc2c(NCCCO)nc3ccccc3n12 | -2.88 |
| CCc1c(CN2CC(C)CC(C)C2)csc1C (stereo not drawn) | 4.14 |
| Cc1cc(Cl)ccc1OCC(=O)Nc1ccccc1 | 0.408 |
| O=C(c1ccc([N+](=O)[O-])o1)N1CCN(Cc2ccccc2)CC1 | -2.42 |
| O=C1C2C3CCC(O3)C2C(=O)N1c1cccc(O)c1 (stereo not drawn) | 1.93 |
| O=C(CCCC(=O)N1CCCc2ccccc21)N1CCCc2ccccc21 | 2.67 |
| CC1CCN(C(=O)CN(C)S(=O)(=O)c2ccc3[nH]c(-c4ccccc4)nc3c2)CC1 | -8.49 |
| Cc1ccccc1OCC(O)CN1CCN(CC(O)COc2ccccc2C)CC1 (stereo not drawn) | -0.053 |
| CN(Cc1ccccc1)C(=O)CN(c1cccc(F)c1)S(C)(=O)=O | -0.512 |
| CC(=O)N1CCN(C2CCc3ccccc3C2)CC1 (stereo not drawn) | 0.217 |
| CC(C)Oc1ccc(C(=O)Nc2ccccc2Br)cc1 | -6.05 |
| O=S(=O)(NCc1ccc2c(c1)OCO2)c1ccc(-n2cccn2)cc1 | -9.58 |
| COc1ccc(O)c(CN2CCC(N3CCCCC3)CC2)c1 | 3.24 |
| Cc1nc(Oc2cccc3cccnc23)c2c3c(sc2n1)CCC3 | 1.67 |
| CC(C)N(Cc1ccccc1)C(=O)c1cc(-c2ccccc2)[nH]n1 | -4.27 |
| Cc1[nH]c2ccc(OC(F)(F)F)cc2c1CCN1C(=O)c2ccc(C(=O)O)cc2C1=O | 0.9 |
| CCC(C)NC(=O)CN1C(=O)CSc2c1c(C)nn2-c1ccccc1 (stereo not drawn) | -0.298 |
| NC(=O)c1sc2nc(-c3ccccc3)ccc2c1N | 3.1 |
| O=C(c1noc2c1COc1ccccc1-2)N1CCCN(Cc2ccccc2F)C1 | 3.3 |
| O=C(NCCc1ccccc1)c1cccc2c1-c1ccccc1C2=O | -2.63 |
| NC(CC(=O)OC1CCCCC1)C(=O)OC1CCCCC1 (stereo not drawn) | -4.21 |

| Structure (SMILES) | % Inhibition @ 10 uM [%] |
| --- | --- |
| COc1ccc(Cl)cc1C(=O)NC1CC(C)(C)NC(C)(C)C1 | -11.5 |
| Cc1ccc(C(=O)N/C(=C/c2ccco2)C(=O)N2CCC(C)CC2)cc1 | -2.78 |
| CCO/C(O)=C1\C(C)=NC2=C(C(=O)CC(C)(C)C2)C1c1ccc(CC)s1 (stereo not drawn) | 0.345 |
| COc1ccc2ccccc2c1CN1CCCN(C)CC1 | -3.57 |
| O=C(CN1C(=O)c2ccccc2C1=O)NCCc1ccccc1 | -1.29 |
| CCN(Cc1ccccc1)S(=O)(=O)c1c[nH]c(C(=O)OC)c1 | -3.76 |
| Cc1csc(NC(=O)C2CCCN(S(=O)(=O)c3c[nH]cn3)C2)n1 (stereo not drawn) | -5.58 |
| O=C(CN(CCc1ccccc1)S(=O)(=O)c1ccc(Br)cc1)N1CCOCC1 | -5.13 |
| Cc1ccc(-c2[nH]c(-c3ccc(F)cc3)nc2SCC(=O)NCC2CCCO2)cc1 (stereo not drawn) | -1.58 |
| O=C(Nc1ccc(Cl)cc1)N1CCc2ccccc2C1 | -0.641 |
| COc1cccc(C(=O)/N=c2\sc(C)c(-c3ccc(F)cc3)n2C)c1 | 0.108 |
| COc1ccc(N2C(=O)CC(N3CCN(C(=O)c4ccco4)CC3)C2=O)cc1 (stereo not drawn) | -1.98 |
| CCCCn1nc(NS(=O)(=O)c2ccccc2)c2cc3ccccc3nc21 | 2.62 |
| O=C(Cn1ncc2c(=O)oc3ccccc3c21)NCCC1=CCCCC1 | -2.83 |
| CCOC(=O)N1CCN(CC(O)COc2c(C)cccc2C)CC1 (stereo not drawn) | -5.35 |
| N#CCNC(=O)[C@H](CSCc1ccc(OC(F)(F)F)cc1)NC(=O)c1ccccc1 | -1.83 |
| O=C1CC(c2cccc(Oc3ccccc3)c2)C2=C(CC(c3ccc(F)cc3)CC2=O)N1 (stereo not drawn) | -2.24 |
| COc1ccc(S(=O)(=O)N(CC(=O)Nc2ccccc2Br)c2ccccc2)cc1 | -1.66 |
| CCC[C@H](NC(=O)[C@H](CS(=O)(=O)Cc1ccccc1)NC(=O)N1CCOCC1)C(=O)c1cccnn1 | -8.36 |
| Cc1nc2ccccc2c2c1C(=O)CC(c1ccc(F)cc1)=N2 | 3.93 |
| CC(C)C[C@H](NC(=O)N1CCN(c2ccc(O)cc2)CC1)C(=O)NCC#N | -5.2 |
| CC1CN(C(=O)c2cccc(S(=O)(=O)N3CC(C)OC(C)C3)c2)CC(C)O1 (stereo not drawn) | 4.08 |
| COc1ccc(N(C(C)C(=O)Nc2ccc(Br)cc2)S(C)(=O)=O)cc1 (stereo not drawn) | 2.08 |
| COc1ccc(C(=N)NOC(=O)C23CC4CC(CC(C4)C2)C3)cc1OC | 1.75 |
